Out of some 420,000 compounds screened, about 50,000 (12%) were called active. The inconclusive results got no clear call from the source; some entries with a clear call stand among them for comparison. The call rests on the fitted dose curve; in most records, active means well fitted inhibition curve with a large enough effect; inconclusive means small, poorly fitted or top-dose-only effect; inactive means flat fitted curve, though single readings scatter. Potencies of inconclusive entries are left out as doubtful fits.
Assay: qHTS for Inhibitors of human tyrosyl-DNA phosphodiesterase 1 (TDP1): qHTS in cells in presence of CPT; further: nearly all actives have a fitted effect of over 55% in size
Settings: chicken DT40 Tdp1-/-;hTDP1 cells + 20 nM CPT, ATP luminescence, 48 h; activity change, negative = growth inhibition: at 46.2 µM (top of the series) unless noted
Outline: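 Cell growth measured by CellTiter-Glo luminescence after a minimum 48 h, 37 C compound exposure with 20 nM CPT in Tdp1-knockout DT40 cells stably expressing hTDP1, seeded 400/well; qHTS titration format.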
On the % scale 0 is the no-effect control and ±100 the full control effect; potency means the concentration at half of the fitted maximal effect; tags describe the fitted curve by direction and shape.

Row | Compound | activity change, negative = growth inhibition | Potency
1 | COC(=O)C[C@H]1C=C[C@H](NC(=O)c2cccc(F)c2)[C@@H](CO)O1 | inactive: 4.09% | –
2 | CSC(=S)N/N=C/c1ccccc1 | – | inconclusive [inhibitor, partial curve]
3 | COc1ccc(NS(=O)(=O)c2cccc(C(=O)NC3CCC(O)CC3)c2)cc1 (stereo unspecified) | – | inconclusive [inhibitor, single point]
4 | O=S(=O)(c1cccs1)N1CCN(c2cccc(Cl)c2)CC1 | inactive: -24.7% | –
5 | O=C(CSc1n[nH]c(=O)[nH]c1=O)Nc1ccc2c(c1)C(=O)c1ccccc1C2=O | – | inconclusive [inhibitor, single point]
6 | CCNC(=S)Nc1ccccc1-c1ccccc1 | inactive: -0.0661% | –
7 | Cc1cc(C)c2nc(N3CCCC(C(=O)NCc4cccc(Cl)c4)C3)sc2c1 (stereo unspecified) | – | inconclusive [inhibitor, single point]
8 | CC(=O)c1ccc(N2CCN(C(=O)Cc3ccccc3)CC2)c(F)c1 | – | inconclusive [inhibitor, single point]
9 | Cn1c(N/N=C/c2cc3ccccc3nc2Cl)nc2ccccc21 | – | active: 3.26 µM
10 | CC(C)CN(CC(C)C)C(=O)C1CCCN(S(=O)(=O)c2ccc3c(c2)oc(=O)n3C)C1 (stereo unspecified) | inactive: -12.6% | –
11 | CCn1c(-c2csc3ccccc23)n[nH]c1=S | – | inconclusive [inhibitor, single point]
12 | O=C(c1cccc(Cl)c1)N1CCN(Cc2ccccc2)CC1 | inactive: -11.1% | –
13 | COc1cccc(NC(=O)c2nn(-c3ccc(C)cc3)c(=O)n(C)c2=O)c1 | – | inconclusive [inhibitor, single point]
14 | CN1/C(=C\C(=O)CSc2ncn[nH]2)C(C)(C)c2ccccc21 | – | inconclusive [inhibitor, single point]
15 | Cc1ccc(NC(=O)CSc2cc(=O)n(C)c3ccc(Cl)cc23)c(Br)c1 | – | inconclusive [inhibitor, partial curve]
16 | Clc1ccc(OCCCn2ccnc2)c(Br)c1 | – | inconclusive [inhibitor, single point]
17 | CC(C)Cn1c(N)c(C(=O)COC(=O)CCc2nc3ccccc3c(=O)[nH]2)c(=O)n(C)c1=O | – | inconclusive [inhibitor, single point]
18 | O=C(NCCC(c1ccccc1)c1ccccc1)c1ccc(Br)o1 | – | inconclusive [inhibitor, single point]
19 | CCOc1ccccc1CN1CCN(Cc2[nH]c3ccccc3c2C)CC1CCO (stereo unspecified) | – | inconclusive [inhibitor, single point]
20 | CCCCc1cc(=O)oc2cc(OCc3cc(OC)c(OC)c(OC)c3)c(Cl)cc12 | – | inconclusive [inhibitor, single point]
21 | Cc1ccc(O)c(N=NC2=C(O)CC(C)(C)CC2=O)c1 | – | active: 14.6 µM
22 | O=C(CSc1ccccc1)N1CCCC(N2CCN(c3ccc(F)cc3)CC2)C1 (stereo unspecified) | – | inconclusive [inhibitor, single point]
23 | CCC(C)Sc1ccc([C@@H]2[C@@H]3C(=O)N(C)C(=O)[C@@H]3[C@]3(C(=O)OC)CCCCN23)cc1 (stereo partly specified) | – | active: 18.4 µM
24 | Cc1ccc(C)c(N(CC(=O)NC2CCCC2)C(=O)c2cc3cc4cc(C)ccc4nc3s2)c1 | – | active: 8.2 µM

Row | Compound | activity change, negative = growth inhibition | Potency
25 | O=C(c1cccs1)c1no[n+]([O-])c1C(=O)c1cccs1 | – | active: 1.84 µM
26 | NC(=O)c1oc2ccccc2c1NC(=O)c1ccc([N+](=O)[O-])o1 | – | active: 0.731 µM
27 | COc1ccc(-n2nc([N+](=O)[O-])c(=NCc3ccc4c(c3)OCO4)n2O)cc1 | – | inconclusive [inhibitor, single point]
28 | Cc1ccc(NC(=O)c2cc(-c3ccccc3O)n[nH]2)cc1C | inactive: -22% | –
29 | Cc1cccc(NC(=O)Cn2c(=O)n(CCC(C)C)c(=O)c3cccnc32)c1 | inactive: -24.7% | –
30 | O=C(Cn1cnc2c(nnn2Cc2ccc(Cl)cc2)c1=O)N1CCN(c2ccccc2)CC1 | – | active: 18.4 µM
31 | CN(CC(=O)NCc1ccccn1)S(=O)(=O)c1cc(Cl)ccc1Cl | inactive: -24.8% | –
32 | N#CCc1c[nH]c2ccc([N+](=O)[O-])cc12 | – | inconclusive [inhibitor, single point]
33 | CCCCN(C)CCNC(=O)c1c(C)oc2ncnc(N3CCOCC3)c12 | inactive: 17.3% | –
34 | CC(=O)OCC(=O)C1(O)CCC2C3CCC4=CC(=O)CCC4(C)C3C(O)CC21C (stereo unspecified) | – | inconclusive [inhibitor, full curve, poor fit]
35 | Cc1cccc(C(C)C)c1NS(=O)(=O)c1cn(C)nc1C | inactive: 4.53% | –
36 | COc1ccc(N(CC(O)Cn2nnc3ccccc32)S(=O)(=O)c2ccc(C)cc2)cc1 (stereo unspecified) | – | inconclusive [inhibitor, partial curve, poor fit]
37 | O=C(CSc1nnc(CNC(=O)c2c(F)cccc2Cl)o1)NC1CCCC1 | inactive: 1.98% | –
38 | O=C(NCc1ccco1)c1ccc(OC2CCN(Cc3ccccn3)CC2)cc1 | inactive: 1.87% | –
39 | COc1cc(NC(=O)CN2C(=O)C(c3ccc(C)cc3)=NC23CCCCC3)cc(OC)c1 | – | inconclusive [inhibitor, single point]
40 | O=C(O)CCC(=O)Nc1ccc(-c2csc(Nc3cccc4ccccc34)n2)cc1 | inactive: 0.834% | –
41 | COc1cc(C(=S)N2CCOCC2)ccc1OC(=O)c1ccc([N+](=O)[O-])cc1[N+](=O)[O-] | – | inconclusive [inhibitor, single point]
42 | Cc1cc2cc(CCNC(=O)C(C)C)c(=O)[nH]c2cc1C | inactive: -3.78% | –
43 | COc1ccc(C(=O)NCC2Cc3cc(C)cc(-c4cc(C(C)=O)ccc4F)c3O2)c(OC)c1OC (stereo unspecified) | – | inconclusive [inhibitor, single point]
44 | COc1cc([N+](=O)[O-])ccc1NC(=O)CCCOc1cc(C)ccc1C | inactive: -11.7% | –
45 | Cc1ccc(-n2nc(C(=O)N3CCN(c4cccc(C(F)(F)F)c4)CC3)c(=O)n(C)c2=O)cc1 | – | inconclusive [inhibitor, single point]
46 | CN1CCc2c(sc(/N=C/c3cc(C(C)(C)C)ccc3O)c2C#N)C1 | inactive: -5.34% | –
47 | COc1cccc2cc(C(=O)N3CCN(C/C=C/c4ccccc4)CC3)c(=O)oc12 | – | inconclusive [inhibitor, single point]
48 | Cc1ccc(-c2nc(CS(=O)(=O)CC(=O)NCCCN(Cc3ccccc3)C(C)C)c(C)o2)cc1 | – | inconclusive [inhibitor, single point]

Row | Compound | activity change, negative = growth inhibition | Potency
49 | O=C(NNC(=O)c1cccc(Br)c1)C(=O)N1CCCCC1 | – | inconclusive [inhibitor, single point]
50 | COc1ccc(S(=O)(=O)N2CCCCCC2)cc1NC(=O)CN(C)Cc1ccc2c(c1)OCO2 | – | inconclusive [inhibitor, single point]
51 | N#Cc1ccc(S(=O)(=O)N2CCc3[nH]c4ccc(F)cc4c3C2)cc1 | – | inconclusive [inhibitor, single point]
52 | Fc1ccc(/C=N/N2CCN(Cc3ccccc3)CC2)cc1 | inactive: -25.9% | –
53 | Cc1cc(-n2cccn2)ccc1CN1CCN(CC(C)C)C(CCO)C1 (stereo unspecified) | – | inconclusive [inhibitor, single point]
54 | COc1cccc(CNC(=O)C2CCN(C(=O)N3CCOc4ccc(Cl)cc43)CC2)c1OC | – | inconclusive [inhibitor, partial curve]
55 | COc1ccc(Cl)cc1NC(=O)c1cc(C)nc2c1c(C)nn2-c1ccccc1 | inconclusive: -32.5% [inhibitor] | –
56 | Cc1ccc(-n2nc3c(SCCN4CCOCC4)nnc(C)c3c2C)cc1 | – | inconclusive [inhibitor, single point]
57 | CCC(CC)C(=O)Nc1cc(-c2cccc(C)c2)nn1-c1ccccc1 | – | active: 23.1 µM
58 | CCOC(=O)c1c(C(F)(F)C(F)(F)C(F)(F)C(F)(F)F)n[nH]c1C | – | inconclusive [inhibitor, single point]
59 | Cc1cc(OCCCn2ccnc2)ccc1C(C)C | – | inconclusive [inhibitor, single point]
60 | O=C(Cn1c(=O)c(=O)n(Cc2ccccc2)c2ccc(Cl)cc21)NCC1CCCO1 (stereo unspecified) | inactive: -13.2% | –
61 | Cc1ccc(S(=O)(=O)c2cc3c(=O)n4cccc(C)c4nc3n(Cc3ccncc3)c2=N)cc1 | – | inconclusive [inhibitor, single point]
62 | CC(C)CC(NC(=O)OC(C)(C)C)c1cn([C@@H](Cc2cc3ccccc3[nH]2)C(=O)N2CCN(C(=O)OC(C)(C)C)CC2)nn1 (stereo partly specified) | – | active: 18.4 µM
63 | Cc1ccc2[nH]c(=O)c(CN(CCCO)Cc3nnnn3Cc3ccco3)cc2c1 | – | inconclusive [inhibitor, single point]
64 | CCS(=O)(=O)Nc1ccc(C(=O)c2ccccc2)cc1 | inactive: -11.3% | –
65 | CSc1oc(-c2ccccc2)nc1S(=O)(=O)c1ccc(F)cc1 | inactive: -22.1% | –
66 | CCOC(=O)n1c(=O)[nH]c2ccc(Br)cc21 | inactive: -0.16% | –
67 | CCC(C)n1cnc2c(c1=O)c1nc3ccccc3nc1n2Cc1ccc(OC)cc1 (stereo unspecified) | – | inconclusive [inhibitor, single point]
68 | Cc1ccc(Cn2c(=O)n(Cc3ccco3)c(=O)c3sc4ccccc4c32)cc1 | – | inconclusive [inhibitor, single point]
69 | CCn1c2ccccc2c2cc(NS(=O)(=O)c3ccc(C)cc3)ccc21 | – | inconclusive [inhibitor, single point]
70 | COc1ccc(NC(=O)c2ccccc2NS(C)(=O)=O)cc1OC | – | active: 20.6 µM
71 | NCC(=O)c1c[nH]c2ccccc12 | inconclusive: -30.3% [inhibitor] | –

— PubChem BioAssay AID686979 (National Center for Advancing Translational Sciences (NCATS), 2013)
